# Experimental data: the supplement of paper PMC10126150
# Values marked as one replicate rest on one cluster of the flow cell; about a third of the high ones do not repeat.
# Tested on: ATP
# Experiment: switch fluorescence ratio, 500 uM ATP over buffer (Cy3 cluster intensity, sum of 5 cycles each) (fold (ratio)); higher = stronger signal-on switching upon ATP binding; sequences stand for … in TCGTCGGCAGCGTCAGATGTGTATAAGAGACAGTTTTTTTTTTTTTTTTTTTTTTTTT…TC
# Settings: aptamer strand: ATP DNA aptamer (quencher-CACCTGGGGGAGTATTGCGGAGGAAGG + anchor), 100 nM annealed; ATP concentration: 500 uM; one replicate
# How it was run: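 For every switch-domain sequence, the fluorescence ratio is the mean of per-cluster values, each being summed target-cycle Cy3 intensity over summed buffer-cycle Cy3 intensity. Clusters outside 100-1000 RFU were excluded. On a modified Illumina MiSeq flow-cell, the Cy3-labelled switching-strand clusters were annealed to 100 nM quencher-labelled ATP aptamer, imaged in selection buffer and then after 15 min with 500 uM ATP at 22 °C. Five such cycles were run, with NaOH stripping and re-annealing between them.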
# 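Also: ATP exposure 15 min at 22 °C before imaging.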
row,Sequence,switch fluorescence ratio
1,AAGGTACA,1.08
2,GGGTCAATTG,1.02
3,AATGGGATGA,0.967
4,GGGTATAGTG,0.995
5,ATGAATACTT,0.948
6,CTATTGCCAA,0.948
7,TTCGAAGGTC,0.992
8,TTATTGTGGT,0.958
9,CTCTTGAACT,0.972
10,GGACACTTTG,1.05
11,GACTTTAAA,0.989
12,CCAGGGTTTC,1.02
13,AAATAAGCA,0.988
14,TCCTGGATAG,1.02
15,AACCCGTGTG,1.05
16,TGGCCGTGCG,1
17,GGTCGGATTT,1.03
18,AAGGCACGGT,0.991
19,CGAGCTATCT,1.37
20,AGTAAATATG,1.02
21,TCTTTCGCTG,0.978
22,TCAGCAAAGC,1.28
23,GCTAGGCGG,0.996
24,ATTAAATTA,0.988
25,CTGAGACATA,1.04
26,CAACAAGTTT,1.02

row,Sequence,switch fluorescence ratio
1,TTTTCTAAAC,0.967
2,CGCGGCTGCT,0.992
3,TGGTACACGG,0.99
4,GGTCTTCGGC,1.12
5,GTCTATGGTA,1.02
6,TCTCTCGAGA,0.992
7,TGTGGTAGG,1.05
8,GTCAGGGGTA,0.971
9,ACTAAAGTCT,1.07
10,ACCTTTCCTA,1.33
11,AGTTTAGCGT,1.01
12,TCAACTGCGA,1.53
13,CGGTCCTACG,1.1
14,ATGAGATCG,1.02
15,AAGAATCCAG,1
16,TTAGACGGAA,1.01
17,AGTGTCGCAC,0.976
18,CTCCATGGAC,1.49
19,ATGTATGTTC,0.959
20,CGCACGGATA,1.1
21,CGCCTATACT,4.28
22,TAGGACCAGG,1.03
23,CCTATGAAAC,1.11
24,CAAGAAGGAT,0.978
25,AGCAATGGCA,1.13
26,ACTAGGAT,0.996

row,Sequence,switch fluorescence ratio
1,AATATAGTCA,1.02
2,CTAGCGCTCG,1.01
3,ACAGGTACT,1.12
4,AAAATGAGA,1.04
5,CCTTATCTCT,1.05
6,TTGTTATATG,1.01
7,ATTGTCGAGC,1.02
8,CACCTTGCGA,1.44
9,AAACTGTGGC,1.06
10,GCTATCGGCT,1.01
11,TTTATTATCC,1.01
12,TTCCTAACAT,1.03
13,ACGGGATAGC,1.13
14,CGGGGTCGTC,1
15,TTCGGGGCCT,1.01
16,ATCGTCACGT,1.01
17,GGGTCGCTGG,0.996
18,CTGAGGCTG,1.04
19,ACTTTCCTGC,1.33
20,GAAGTATATG,0.999
21,TAGTTATAGA,0.959
22,GGGCTATGTG,0.959
23,TTTACCCAGC,1.09
24,CACGCCTGGT,1.06
25,TCTGGGTTTC,1.06
26,GCGGTCCAGT,1.06

row,Sequence,switch fluorescence ratio
1,GCTGCAACGC,1.11
2,GCCGCAGACT,2.63
3,GGGCGGCATT,1.01
4,TCTTTAGTCG,0.924
5,TACTAAGTGC,1.04
6,CCCGAATGCG,1.05
7,AGTGTAGCGC,0.951
8,CGGGAAACAC,1.32
9,CCAGCATCGT,1.02
10,AGGTGATGAG,1.04
11,GCAACAAGCG,1.02
12,GGGCGAGATT,1.05
13,CGGCGTTG,0.99
14,CGATAAGGAC,1.04
15,TGGGTTTAGA,1
16,AGTTAACATT,0.962
17,CCATGGCCAA,1.31
18,CCACAATTAA,1.43
19,GGGTATTGCT,0.967
20,TACCTGGGCG,1.02
21,TTGCCTAAGT,0.989
22,GGTAG,0.993
23,TCCGGGGGGA,1.43
24,CGGCTACCGT,0.956
25,CGCCACGTAA,1.23
26,AAAGTGCATT,0.968

row,Sequence,switch fluorescence ratio
1,TAACCTTAAT,1.08
2,TAATGATGTA,1.04
3,CAATGATATG,0.995
4,TTCTCATTGA,1.03
5,GACGTAGGGT,1.34
6,GGTGGAGTTA,1.03
7,GAAATCGCGG,0.968
8,TATATAATGT,1.01
9,AGGGATTTGA,0.944
10,GGGCAGTTTG,0.986
11,GCAAAAATTA,1.05
12,GACATCCGT,1.01
13,CTCAGGATAA,1.14
14,GCCAGCGGGT,0.976
15,CACAGACCAC,1.15
16,AAAGAAAGCA,1.04
17,GAGTCCACCT,1.12
18,TTTCTACAAA,1.02
19,GCGGATTAC,2.71
20,CTGTAGACCG,1.04
21,TTATGGCGTC,0.899
22,CTAGTCGCTA,0.981
23,AGAGGGTTTC,1.02
24,GCATTCGGCG,0.978
25,GAGACAGGGT,0.983
26,GCTCCGAA,1.64

row,Sequence,switch fluorescence ratio
1,ATAGTAACCA,1.03
2,GTTCCGAAGG,1.03
3,TTCCATTCGT,0.973
4,GTTAGAGACT,1
5,ATTGATAGAT,0.996
6,ACGACAAGTT,1.08
7,AACGTGCTGC,1.06
8,TATCTCAAGC,1.02
9,TGCTACTTCT,1.01
10,CTCTTTCACG,1.05
11,CGGCCAGATT,0.997
12,AAATAGGGCA,1.11
13,TTTCAGCCTT,0.999
14,AAAAGCGGCA,1.03
15,GGCGTCGCGC,1.03
16,TGCGATAGCT,1.04
17,GATTTAGGGT,0.975
18,CGCTTGGCGG,1.07
19,CTCGTCCGA,1.03
20,ACCACAACTA,1.07
21,CTAAAAATTG,0.919
22,CGCGGGCAGA,1.04
23,TTGTGAACTC,1.01
24,GTGTAAGTGC,1
25,AGGATCGGAG,1.02
26,GGGTCGTGTC,1.06

row,Sequence,switch fluorescence ratio
1,CGTATACGC,1.12
2,ACATGGGCCC,0.995
3,CGACACTCAA,1.25
4,TGCATTTAGC,1.05
5,CTGGCCAGAA,1.08
6,TGCATGTAAT,1.01
7,CGAGTTATCG,1.01
8,CAGCAAAATA,1.11
9,TACGACATTA,1.18
10,TAAGGGATC,0.956
11,GTAATCAGTT,0.968
12,TGCGAGCAGT,1.01
13,TTCTGTTCGG,0.956
14,GCTAGATCGG,0.977
15,GTCACGGATG,1.01
16,TGAGACCGT,0.975
17,CGTGGGCGTA,0.97
18,CTATGTTGAC,0.985
19,AGCCGTTG,1.02
20,ACCAGGCTTA,1.06
21,CCCATTGTCT,1.07
22,TGCTTGGATC,1.02
23,GGGATTGCAA,0.98
24,CTAATCTAAT,1.01
25,GCATTGGTGC,1
26,TCCTGTTCCA,0.998

row,Sequence,switch fluorescence ratio
1,CTGTGACCGC,1.18
2,AGGAATCACT,1.02
3,TAAGGCATGA,0.981
4,AAGAATACGT,1.25
5,GGGGTATCAG,1.03
6,TCGGTTTAAG,0.967
7,TAAATACCAC,1.05
8,AATGAACGGT,1.02
9,ATAAAACAGG,1
10,CTTTGTATTA,0.993
11,ATACGTCTTG,0.979
12,AATACCATTA,1.02
13,GGGAGGCTCA,0.984
14,GGGGCAGGGC,0.971
15,TAGACTAGGA,0.971
16,TTTATTATG,1.08
17,GGTTTGATAG,0.963
18,ATATGCTGAA,0.987
19,TAATTCTATT,0.944
